Results from article PMC4336329 (PLoS ONE, 2015).
The campaign covered roughly 310,000 compounds. About 14,000 (4.5%) showed an effect of 50% or more. The effect is printed as a negative number. The list shows a part of the results.

biological target: human ether-à-go-go-related gene (hERG) potassium channel (human, UniProt Q12809); test: primary screen, population patch clamp on CHO cells stably expressing hERG
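Also: peak tail current of the secondary pulse compared with the same well before compound.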

human ether-à-go-go-related gene (hERG) potassium channel, sequence (Q12809 whole entry, looked up): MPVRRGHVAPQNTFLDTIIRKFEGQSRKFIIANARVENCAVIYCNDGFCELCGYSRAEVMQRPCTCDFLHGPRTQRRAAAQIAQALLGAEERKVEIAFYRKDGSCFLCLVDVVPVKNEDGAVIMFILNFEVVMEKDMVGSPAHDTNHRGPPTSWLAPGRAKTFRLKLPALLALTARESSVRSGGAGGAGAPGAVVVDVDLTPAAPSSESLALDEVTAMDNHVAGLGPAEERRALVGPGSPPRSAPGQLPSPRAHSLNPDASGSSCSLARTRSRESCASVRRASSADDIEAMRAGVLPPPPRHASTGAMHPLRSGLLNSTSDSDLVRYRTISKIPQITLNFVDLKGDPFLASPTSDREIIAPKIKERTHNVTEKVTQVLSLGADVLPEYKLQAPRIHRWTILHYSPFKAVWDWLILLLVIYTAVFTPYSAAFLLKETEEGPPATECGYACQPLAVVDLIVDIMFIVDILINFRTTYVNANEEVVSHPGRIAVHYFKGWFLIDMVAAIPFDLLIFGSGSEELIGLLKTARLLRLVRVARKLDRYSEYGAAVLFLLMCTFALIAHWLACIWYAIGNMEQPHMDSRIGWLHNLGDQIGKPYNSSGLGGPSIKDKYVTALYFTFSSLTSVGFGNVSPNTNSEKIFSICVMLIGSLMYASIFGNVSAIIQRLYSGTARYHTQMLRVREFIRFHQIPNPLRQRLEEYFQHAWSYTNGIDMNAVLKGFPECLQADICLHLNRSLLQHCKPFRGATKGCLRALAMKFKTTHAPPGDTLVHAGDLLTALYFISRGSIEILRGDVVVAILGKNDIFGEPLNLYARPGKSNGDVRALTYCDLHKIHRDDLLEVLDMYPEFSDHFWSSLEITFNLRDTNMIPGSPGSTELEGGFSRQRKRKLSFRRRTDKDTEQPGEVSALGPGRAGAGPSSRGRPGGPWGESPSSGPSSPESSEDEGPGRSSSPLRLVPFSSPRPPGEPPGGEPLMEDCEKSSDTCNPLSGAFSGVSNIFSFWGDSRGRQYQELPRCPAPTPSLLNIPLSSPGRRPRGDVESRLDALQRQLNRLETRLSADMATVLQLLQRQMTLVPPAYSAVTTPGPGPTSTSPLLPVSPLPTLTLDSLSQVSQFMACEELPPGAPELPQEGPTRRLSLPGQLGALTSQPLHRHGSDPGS

Structure (SMILES)	hERG current change (%, negative = inhibition) at 10uM [%]
COc1ccccc1N1CCN(C(=O)C(=O)c2c(C)n(C)c3ccccc23)CC1	-8.62
COc1cccc2c(=O)c3cccc(N)c3[nH]c12	8.24
CCOC(=O)C(NC(=O)Nc1cccc(C)n1)(OCC(F)(F)F)C(F)(F)F (stereo not drawn)	5.06
Cc1cc(C)n(C(=O)c2ccc(Cn3nc(C)c(Br)c3C)o2)n1	-1.03
COc1cc2cnc(-c3ccccc3)c(-c3cccc(C(F)(F)F)c3)c2cc1OC	19
O=C(Cc1ccc(S(=O)(=O)N2CCOCC2)s1)NC1CCCCC1	-25.4
Cc1ccc(/C=C/C(=O)N2CCCC(C(N)=O)C2)o1 (stereo not drawn)	-8.59
Brc1ccc2ncnc(NCc3ccco3)c2c1	-39.5
CC(C)NC(=S)N1CCN(c2ncccn2)CC1	-0.598
COc1ccc2c(c1)c(C(O)CN1CCC(Cc3ccccc3)CC1)c(C)n2C (stereo not drawn)	-71
COc1ccc(NC(=O)N(Cc2cc3cc(C)ccc3[nH]c2=O)CC2CCCO2)cc1 (stereo not drawn)	-25.2
CC(=O)c1ccc(Sc2ccccc2N)c([N+](=O)[O-])c1	-14.7
COc1ccc(CN2[C@@H](CC(C)=O)c3cc(C(F)(F)F)ccc3S2(=O)=O)cc1	-33.7
COc1ccc(-n2c(=O)c3ccccc3n(CC(=O)NCC3CCCO3)c2=O)cc1 (stereo not drawn)	13.4
CCN(CC)c1ccc(C(NC(C)=O)NC(C)=O)cc1	2.87
CCOc1ccccc1NC(=O)CSc1nc2c(c(=O)n1C)SC(C)C2 (stereo not drawn)	-38.2
Cc1ccc(CCc2nnc(SCC(=O)Nc3cc(Cl)ccc3Cl)n2-c2ccccc2)o1	-2.79
O=C(NC(Cc1ccccc1)c1ccc2c(c1)OCCCO2)c1ccccc1 (stereo not drawn)	19.1
CN1CCCN(S(=O)(=O)c2cccc(C#N)c2)CC1.Cl	6.61

Structure (SMILES)	hERG current change (%, negative = inhibition) at 10uM [%]
O=C(OCc1cc(Cl)ccc1OC(F)F)c1cccnc1	-7.25
CCOC(=O)c1cc(C#N)c(SC)nc1C	13.1
CN(C)c1ccc(C(=O)OCc2ccc(Br)cc2)cc1	12.5
COc1ccc(CC(=O)Nc2cc(C)on2)cc1OC	2.2
COc1ccc(CCNc2ncnc3sccc23)cc1OC	12.9
COc1ccc(NC2=Nc3ccccc3CC2)cc1	-28.4
CC(C)(C)S(=O)(=O)/C(C#N)=N/Nc1ccc(S(N)(=O)=O)cc1	15
O=C1C2C3C=CC(C3)C2C(=O)N1c1ccccc1 (stereo not drawn)	9
Cc1ccc(C(C(=O)NCc2ccccc2)N(Cc2cccs2)C(=O)c2ccc3c(c2)OCCO3)cc1 (stereo not drawn)	-1.52
Cc1sc(NC(=O)c2ccco2)c(CN2CCC(C)CC2)c1C	-16.2
CC(C)CC(NC=O)C(=O)O.COc1cc2c(cc1OC)C13CCN4CC5=CCOC6CC(=O)N2C1C6C5CC43 (stereo not drawn)	3.18
Nc1ccc[n+](CC(=O)c2ccccc2)c1.[Br-]	-9.03
O=C(/C=C/c1ccccc1)NC1CCSC1=O (stereo not drawn)	8.98
NS(=O)(=O)Oc1ccccc1	10.1
COc1ccc(NC(=O)C2CCCN2C(=O)NC2CCCCC2)cc1 (stereo not drawn)	-2.82
CCn1c(=O)n(CC(=O)Nc2ccc(F)cc2)c(=O)c2ccccc21	-6.08
O=C(CSc1nnc(Cc2ccccc2)o1)NC1CCCCC1	-2.76
CCOC(=O)Cn1nnc(-c2cc(OC)c(OC)c(OC)c2)n1	5.43
COc1cc2c3cc1Oc1cc(ccc1O)C[C@@H]1c4c(cc(OC)c(O)c4Oc4cccc(c4)C[C@@H]3N(C)CC2)CC[N+]1(C)C.Cl.O.[Cl-]	9.2

Structure (SMILES)	hERG current change (%, negative = inhibition) at 10uM [%]
O=C(CCn1c(=S)[nH]c2cc3c(cc2c1=O)OCO3)NCc1ccc(Cl)cc1	26
O=C(O)/C=C/S(=O)(=O)c1ccc2ccccc2c1	15.4
CCOc1ccc(N(CC(=O)Nc2ccccc2C)S(=O)(=O)c2c(C)[nH]c(=O)[nH]c2=O)cc1	3.24
CCCOc1cccc(/C=N/NC(=O)c2csc(C)c2C)c1	7.52
CCN(CC)CCN1CCn2c3c(c4cc(C)ccc42)CCCC31.Cl (stereo not drawn)	-76.3
Cc1nnsc1-c1onc(C)c1C(=O)O/N=C/c1ccc(Cl)cc1	9.66
Cl.O.Oc1ccc2c3c1O[C@H]1c4[nH]c5ccccc5c4C[C@@]4(O)C(C2)N(CC2CC2)CC[C@]314	-55.4
CCc1nnc(NC(=O)CCC(=O)NC2CC2)s1	-50.5
CC(C)(C)NC(=O)CSc1nc(O)cc(=O)n1-c1ccccc1	-1.47
O=C(NCc1ccon1)c1ccc(OC2CCN(CCc3ccccc3)CC2)cc1	-66.6
CCC(C)NCCOCCOc1ccc(C)cc1Br.O=C(O)C(=O)O (stereo not drawn)	-41
COc1ccc(-c2csc(NC(=O)C3=NN(c4ccccc4)C(=O)CC3)n2)cc1	-0.387
Clc1cc(NCc2cccs2)ccc1N1CCOCC1	3.84
Cc1ccc(NC(=O)Nc2cccc(C(F)(F)F)c2)nc1	22.8
Cc1ccc(NC(=O)c2c(C)nc(Nc3nc4ccccc4o3)nc2C)cc1	9.04
COC(=O)c1ccccc1OCCCN(C)C.O=C(O)C(=O)O	-17.4
Cc1ccccc1OCC(=O)Nc1ccccc1NC(=O)c1ccco1	-7.72
Cc1cccc(/C(N)=N/OC(=O)N2c3ccccc3Sc3ccccc32)c1	-1.7
CC(=O)c1ccc(NC(=O)C(C)OC(=O)CCCN=C2NS(=O)(=O)c3ccccc32)cc1 (stereo not drawn)	13.6
